Reference: the supplement of paper PMC3334620
The full ranking holds about 33,000 sequences; the median of “E-score (-0.5 to 0.5)” is about -0.01, and the highest 2% start at about 0.26. The list shows a part of the results.

target: Ste12 (UniProt P13574); experiment: PBM E-score (8-mer binding enrichment) (E-score (-0.5 to 0.5)); higher = stronger / more preferred TF binding; most listed sequences are background and not binding sites; settings: protein concentration: 200 nM; construct: GST-DNA-binding domain
How it was run: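 Universal all-10-mer Agilent arrays, fresh or stripped once, were converted to double-stranded form by primer extension. GST-tagged yeast transcription factors from PURExpress in vitro transcription/translation, full-length or DNA-binding domain only, were applied at about 100-200 nM and detected with fluorescent anti-GST. After masliner normalisation, the Universal PBM Analysis Suite scored each ungapped eight-base word together with its reverse complement by E-score.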

Sequence	PBM E-score
GTGAGCTA	0.116
CCCACTAG	-0.222
AAAGCCAC	0.013
AGGCCCGC	0.0381
GTCAAAAC	0.136
GATAGTAA	-0.0665
TATGTACA	-0.00078
CACATCGC	-0.0501
AAAACGTC	0.134
ATCATCCA	0.0729
TGGCCTAA	-0.0815
AACCGTCT	-0.0707
CAAGACCG	-0.0719
ACTGCCTC	-0.105
CATGAGAC	0.212
CTCTGAAG	-0.104
ATATAAAG	0.171
GGCGCATA	-0.0628
TGCATCAA	0.0996
AAGCATCC	-0.0149
CGGGCTCA	-0.147
AGCCGCCA	-0.272
TCACGGAA	0.135
CTATTAAG	0.0151
CGGAGACC	-0.101

Sequence	PBM E-score
CTGACAGA	-0.0419
GCCTAACA	-0.0189
CAATGCAA	0.109
GTACCTTA	-0.0219
TATCAATA	0.0646
AACCACAC	0.134
ATTGGAAA	0.142
AGTAAAAT	0.122
CAATACAC	0.0704
ACTGTGCT	-0.136
ACCCGAGA	-0.0344
AGACCCGG	-0.00476
CGGTGAGA	0.0281
GCACCACC	-0.0507
CCTACAAA	-0.0141
CACTGGCG	0.0948
GGGCCTAC	-0.266
ATGTCCCG	0.134
CGTCAGAG	-0.0346
GCCGTAGC	-0.171
AGGCGATA	-0.0277
GTGTTACA	0.19
GACGACAA	0.134
AAACGCTA	0.112
TCCGGACA	-0.0855

Sequence	PBM E-score
TACCTATA	0.106
AATCCAAG	0.0843
AAGTAAAA	0.207
AAAACCTA	0.283
CCGTACCC	-0.105
CGCCGCCA	0.0918
ACCTCTAT	-0.0679
GTTTAATA	0.179
ACTGACTA	-0.184
AAGCCGAA	0.201
AACGCTGC	0.095
ATGATACC	0.0159
ACAAAAGC	0.133
GTGCTCCA	-0.217
CAAATGTG	0.224
AGGGAGAT	-0.134
AAGTGAAC	-0.161
AAGTGTCA	0.0167
GCACACAA	-0.0442
GCCACTAA	-0.0737
ACTCGGCA	0.0505
GCTCGTAA	0.0527
GAGCTCTA	-0.0421
CGCCTGGA	-0.186
AATCAACA	0.29

Sequence	PBM E-score
CTTGAGCC	-0.171
GCGAGTCC	-0.187
CTGTCGCC	-0.0732
ATCGGGCC	-0.141
TAATTCAA	0.12
GACTCGAA	-0.143
ACGTAAGA	-0.0585
CGTGGATC	-0.215
GATGGCGC	-0.157
GTCACACA	0.131
ACTACTAT	0.155
ATAGGCAT	0.0191
CTGTCAAA	0.0412
AACTCCTG	-0.0735
AACCGATA	0.156
TATCTCAA	0.249
GATTTGCA	0.00045
ACCATGGC	0.0464
CCATCCCG	-0.176
AAAAGATA	0.201
CTTATCCA	0.0913
GCCTTCGA	-0.115
GGCAATAC	0.0406
CGAGACCG	0.0525
AGTGGAAA	-0.0995

Sequence	PBM E-score
AAGCAGAC	-0.00074
TCTAGACA	0.0632
CCGTGCGA	-0.00195
CTGAAAGA	0.00814
ATCAACAC	0.0307
CTTCATAC	0.149
ACATCTAG	0.0498
CGTTGCAG	-0.0969
ACATTAGA	0.0281
CCTAATAG	-0.0795
GGTGTGAA	0.19
CACACATG	0.0585
GAGAGCGA	-0.287
CCTTTGCC	-0.156
AATTCGTA	0.131
GTGCTTTA	0.163
CCGGTTGC	0.0807
ACACCGTG	-0.12
AATGGCGA	0.0256
AGGGGTTA	-0.0557
GCCTTCAC	-0.0178
CACTTTGG	0.0297
TCGATAAA	0.111
CATCTAAG	-0.148
AGACCTAC	-0.172

Sequence	PBM E-score
GCGAAAAA	0.25
AGACGGCC	-0.195
CAAATTGG	0.157
AAATGGGA	-0.125
CCACTGCA	-0.113
CAAGATGG	-0.0191
CCTAGCTC	-0.187
TAATCGAA	0.185
GGTTTTAA	0.298
AGACCCTG	-0.162
AACATGCA	-0.0993
CCAACCCG	-0.0334
GGCTTGAA	0.0677
CGTTACTC	0.00531
CCGGTTAA	0.0102
GGGGAGAA	0.109
CGCCCCCC	0.0158
CGCAGGTA	-0.0531
AGCCGGAC	0.096
ATTTATAC	0.195
AATTGGCC	-0.137
GCCTTCCA	-0.179
ACCTTATA	0.15
CCAAACGG	-0.0425
ACCTAGAA	0.0054

Sequence	PBM E-score
TATCATGA	0.0256
GACCCGAC	-0.0152
GACGGCAC	-0.181
AGTTGGAT	0.00422
CGACATAC	-0.00078
GCAGGATA	-0.0749
AGTTACAC	0.103
ACCTCCTA	-0.143
CAGAATCG	-0.0269
ATATAGAG	-0.0649
CCTTAAGA	-0.0184
GAACAGAA	0.187
ATTCCCTC	-0.00224
AAGCGGGT	-0.0385
CAAGTGTC	0.0254
AACCAGAG	-0.0961
CCAATGTA	-0.0229
GCACGACC	-0.208
GTAAAGTA	0.149
ACCGTGCC	-0.0247
CTTATTAC	0.0999
CGGAATTC	0.0484
